# Data: the supplement of paper PMC3334620
# In all, about 33,000 sequences were measured (“E-score (-0.5 to 0.5)”: median about -0.041, highest 2% from about 0.37 on). The list shows a part of the results.
# Biological target: T1, Ecm22 (UniProt Q05958)
# T1 sequence: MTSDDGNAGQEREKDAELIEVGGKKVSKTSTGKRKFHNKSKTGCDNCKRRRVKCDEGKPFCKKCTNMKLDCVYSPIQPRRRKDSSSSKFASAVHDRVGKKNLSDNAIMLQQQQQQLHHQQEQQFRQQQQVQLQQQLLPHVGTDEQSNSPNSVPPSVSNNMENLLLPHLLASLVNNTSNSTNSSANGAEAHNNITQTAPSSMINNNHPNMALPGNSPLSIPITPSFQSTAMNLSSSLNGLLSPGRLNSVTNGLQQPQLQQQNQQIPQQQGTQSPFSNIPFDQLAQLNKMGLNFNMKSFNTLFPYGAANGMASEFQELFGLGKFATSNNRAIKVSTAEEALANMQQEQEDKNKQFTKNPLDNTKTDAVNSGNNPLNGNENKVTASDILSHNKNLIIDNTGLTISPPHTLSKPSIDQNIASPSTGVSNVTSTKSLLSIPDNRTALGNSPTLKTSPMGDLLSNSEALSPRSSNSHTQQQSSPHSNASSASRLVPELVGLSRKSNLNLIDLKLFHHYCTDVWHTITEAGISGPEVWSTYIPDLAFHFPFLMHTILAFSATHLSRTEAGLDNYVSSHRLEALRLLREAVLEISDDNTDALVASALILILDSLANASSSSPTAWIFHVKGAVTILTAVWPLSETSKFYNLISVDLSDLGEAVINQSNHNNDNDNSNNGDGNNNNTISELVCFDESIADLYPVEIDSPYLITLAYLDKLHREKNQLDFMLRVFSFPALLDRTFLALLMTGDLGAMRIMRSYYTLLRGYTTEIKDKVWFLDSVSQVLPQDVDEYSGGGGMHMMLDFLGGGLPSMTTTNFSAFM
# Experiment: PBM E-score (8-mer binding enrichment) (E-score (-0.5 to 0.5)); higher = stronger / more preferred TF binding; most listed sequences are background and not binding sites
# Conditions: protein concentration: 200 nM; construct: GST-full length
# Summary of the method: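 Yeast transcription factors, full-length or as DNA-binding domains, were expressed with a GST tag using PURExpress in vitro transcription/translation. At about 100-200 nM they were applied to universal all-10-mer Agilent arrays, double-stranded by primer extension on fresh or once-stripped slides. Fluorescent anti-GST detected bound protein, and masliner normalised the scans. E-scores for ungapped eight-base words, pooled with reverse complements, came from the Universal PBM Analysis Suite.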
row,Sequence,PBM E-score
1,AATGTTGT,0.0444
2,CGGTCCCA,0.16
3,CCGGCGAA,0.108
4,AATCCGGG,0.0101
5,AGTAAGTA,-0.0353
6,ACCCTGTC,0.0446
7,CGACACAA,0.0541
8,GCTGCGAA,0.0942
9,ACACAGCC,-0.118
10,GGTTCTTA,-0.133
11,AGATCACT,0.0131
12,GGCCGGGA,-0.0139
13,CAGATAGC,-0.207
14,TACGTCTA,0.0439
15,AGGTCGTC,0.106
16,AAGTACTT,0.0668
17,AATCACAT,-0.211
18,GCCTCGGA,0.175
19,GACTCTCA,-0.135
20,ACACACAT,0.0907
21,CAGTTGAG,-0.187
22,ATACTCAG,0.0352

row,Sequence,PBM E-score
1,AGAGACCT,-0.208
2,CCATGATA,0.0128
3,ACATAAGC,-0.0794
4,GTGCACCA,-0.222
5,CATCTAGA,0.0762
6,TGTTAACA,-0.209
7,ACTTTTAG,-0.128
8,TCCCTCAA,-0.209
9,GCTAGGAC,-0.337
10,GATTCGGA,0.171
11,ACGTGTCG,0.0998
12,CATTGGCC,-0.275
13,ATGGTCGC,0.174
14,CCTACCCA,-0.107
15,GGATATAA,-0.00476
16,CGTCCGGC,-0.0232
17,CCGGTTCA,-0.0366
18,AAACCGGT,-0.102
19,GAGGTCAA,-0.199
20,GCGGTCCA,-0.17
21,AGCGTAGG,-0.237
22,ATCCAACC,-0.0702

row,Sequence,PBM E-score
1,GAAGAGGC,-0.0544
2,GCTGAGAC,-0.259
3,GCTAATGA,-0.15
4,AGGCCTAT,-0.11
5,CGAGCTAA,0.166
6,GATGCAAA,0.00056
7,GATGCCGA,0.0861
8,GGCGTGAC,-0.215
9,AACATCCT,-0.188
10,GCTGGAGA,-0.0748
11,GCCGGGTA,-0.0886
12,AGACGGCT,-0.237
13,GTATAACA,0.23
14,ACACTTGC,-0.0727
15,CTTGATCC,-0.133
16,AAATGGTA,0.0511
17,AAAATGCC,-0.0142
18,CCTTAGAA,-0.284
19,GTTCACAA,0.135
20,ACTGATAC,0.125
21,CGGAAGGA,-0.0981
22,GCTCGCCC,-0.0118

row,Sequence,PBM E-score
1,AAATCTGC,-0.141
2,ATTGACAC,-0.165
3,ATGGTTCA,0.0295
4,CTAGCATA,-0.147
5,GATAACTA,-0.0547
6,AAGGAGTC,-0.179
7,CTGAGCGC,-0.0118
8,AACCCGTA,0.255
9,GAGGGTCA,-0.124
10,GTACATGA,0.175
11,TCTAGTCA,-0.00339
12,CTGGCATA,-0.118
13,CAACGAGG,0.343
14,CATAAGCC,-0.213
15,CACCACGC,-0.182
16,GCTCTTAC,0.0699
17,CCGCGGTA,0.114
18,CAACGAGA,0.378
19,TGCTCAAA,-0.115
20,CGGGGCCC,0.0276
21,AATTGTCA,-0.00223
22,CAATATTG,0.00456

row,Sequence,PBM E-score
1,AGATTCAA,-0.147
2,AACATGCT,-0.0554
3,GTAACGAA,0.306
4,ACCGATTG,0.115
5,TAGACAGA,-0.0668
6,CCCATACG,0.368
7,CGTATGCA,0.341
8,GAAAGCTC,-0.0556
9,CAGCCAGA,-0.0613
10,AGAGAGGC,-0.358
11,AAAAGAGT,-0.212
12,GATGGAAC,0.214
13,AGAGTTAC,-0.0231
14,CATTATAA,0.17
15,GCCTAGTA,-0.0723
16,AATGTTTG,-0.108
17,AAGCATAG,-0.11
18,ACAGTTGG,-0.197
19,CATCATAC,0.0354
20,GACTGAGC,-0.217
21,GGGGTCGA,-0.159
